The whole screen tested about 390,000 compounds, of which about 1,400 (0.36%) were called active. Inconclusive means that the source gave no clear call. Such entries were picked first, then a sample of the others. Calls follow the shape of the dose curve; as a rule, active = well fitted inhibition curve with a large enough effect; inconclusive = small, poorly fitted or top-dose-only effect; inactive = no such curve, though single readings can be large or run the other way. Where the call is inconclusive, the potency comes from a doubtful curve fit.
Target: Flap endonuclease 1 (Homo sapiens) (UniProt P39748)
Sequence of UniProt P39748 (P39748 whole entry, looked up): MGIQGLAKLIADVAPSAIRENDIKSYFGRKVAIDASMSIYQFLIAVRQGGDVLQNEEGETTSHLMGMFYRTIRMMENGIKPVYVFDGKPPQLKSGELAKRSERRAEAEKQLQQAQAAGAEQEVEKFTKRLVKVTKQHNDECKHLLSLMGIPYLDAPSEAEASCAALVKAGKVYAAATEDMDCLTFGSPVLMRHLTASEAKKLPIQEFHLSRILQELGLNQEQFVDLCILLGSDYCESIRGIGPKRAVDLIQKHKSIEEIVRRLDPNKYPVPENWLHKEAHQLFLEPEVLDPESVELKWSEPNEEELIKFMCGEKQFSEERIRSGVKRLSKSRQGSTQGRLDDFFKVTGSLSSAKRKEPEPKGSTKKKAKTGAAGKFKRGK
Assay: qHTS Assay for the Inhibitors of Human Flap endonuclease 1 (FEN1). Also: nearly all actives have a fitted effect of over 65% in size.
Conditions: Recombinant FEN1 flap cleavage, fluorescence, 15 min; series mostly up to 114 µM
How it was run: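 FEN1 at 10 nM preincubated with compounds 15 min at room temperature, then flap DNA substrate added at 50 nM final. Signal read at 0 and 15 min; concentration-response fitted with four-parameter Hill equation.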
Potency is read from the fitted curve at half-maximal effect; tags tell the direction and shape of the fitted curve.

| Structure (SMILES) | Potency |
| --- | --- |
| CCn1c2ccccc2c2nc3ccccc3nc21 | inconclusive: 44.7 µM [inhibitor, partial curve] |
| c1cncc(-c2nc(NCCCN3CCOCC3)c3c4c(sc3n2)CCC4)c1 | inconclusive: 50.1 µM [inhibitor, partial curve, poor fit] |
| C=CC(=O)Nc1cccc(Oc2ccnc(Nc3ccc(N4CCN(C)CC4)cc3)n2)c1 | inconclusive: 56.2 µM [inhibitor, partial curve, poor fit] |
| CCOC(=O)c1c(N)sc(C(O)(C(F)(F)F)C(F)(F)F)c1-c1ccccc1 | inconclusive: 56.2 µM [inhibitor, partial curve, poor fit] |
| CC1=C(C(=O)OC2CCCC2)C(c2ccccc2C(F)(F)F)CC(=O)N1 (stereo not drawn) | inactive |
| O=C(CCc1ccc(S(=O)(=O)N2CCOCC2)cc1)N/N=C/c1ccc(O)c(O)c1O | inconclusive: 56.2 µM [inhibitor, partial curve] |
| Nc1nc(Cl)nc2c1ncn2[C@@H]1O[C@H](CO)[C@@H](O)[C@H]1O | inconclusive: 8.44 µM [inhibitor, single point] |
| COC(/C=C/Nc1ccc(OC)cc1)=C(C#N)C#N | inconclusive: 0.282 µM [inhibitor, full curve] |
| CCOC(=O)c1c(NC(=O)COc2ccc3ccc(=O)oc3c2)sc(C(=O)N(C)C)c1C | inactive |
| Cc1ccc(C2(c3ccccc3)NC(=O)N(CC(=O)NCc3ccccc3)C2=O)cc1C (stereo not drawn) | inconclusive: 39.8 µM [inhibitor, partial curve, poor fit] |
| Cc1ccc(S(=O)(=O)NC(=O)c2cc(C)n(-c3cc(S(=O)(=O)N4CCOCC4)ccc3N3CCCC3)c2C)cc1 | inactive |
| O=C(COC(=O)CCC(=O)c1cccs1)NCc1ccco1 | inconclusive: 56.2 µM [inhibitor, partial curve, poor fit] |
| CCOc1ccc(CCNC(=O)CCn2ccc3cc(S(=O)(=O)N4CCCC4)ccc32)cc1 | inconclusive: 89.1 µM [inhibitor, single point] |
| CS(=O)(=O)c1ccc(C(=O)Nc2nc(-c3ccco3)c(-c3ccco3)s2)cc1 | active: 56.2 µM |
| CC(=O)Nc1cccc(C(=O)NCc2ccc3c(c2)CCN3C(=O)c2ccc(F)cc2)c1 | inactive |
| Cc1cc2c(cc3c(SCc4ccccc4Cl)nnc(C)n32)o1 | inactive |
| COc1cccc(OC)c1C(=O)NC(=S)Nc1ccc(S(=O)(=O)Nc2nccs2)cc1 | inactive |
| Cc1ccc(NC(=O)c2c(NC(=O)C(F)(F)F)sc3c2CCCCC3)cc1 | inconclusive: 56.2 µM [inhibitor, partial curve, poor fit] |
| Cc1cc(C)nc(/N=C(\N)Nc2ccc3c(c2)OCCO3)n1 | active: 79.4 µM |
| COc1ccc2c(c1)c1nnc(SC)nc1n2Cc1ccccc1 | inactive |
| N#Cc1c(SCC(=O)Nc2cccc(F)c2)sc2c(O)cc(=O)[nH]c12 | inconclusive: 56.2 µM [inhibitor, partial curve, poor fit] |
| S=C(NCCCc1cnc[nH]1)NCCCN(Cc1ccc(Cl)cc1)c1ccc(-c2ccccc2)cn1 | inactive |
| CC(CCC(C)[n+]1cccc(Br)c1)[n+]1cccc(Br)c1 (stereo not drawn) | inactive |

| Structure (SMILES) | Potency |
| --- | --- |
| Cc1ccnc(N/C=C(\C#N)c2nc(-c3cccc(Br)c3)cs2)c1 | inconclusive: 89.1 µM [inhibitor, single point] |
| CC(C)c1ccc(/C=c2\sc3nc(-c4ccncc4)nn3c2=O)cc1 | inactive |
| COc1ccc(C(=O)Nc2ccccc2C(=O)OCc2cc(=O)n3c4c(sc3n2)CCCC4)cc1 | inactive |
| O=C1c2cccc3c([N+](=O)[O-])ccc(c23)C(=O)N1Cc1cccnc1 | inconclusive: 50.1 µM [inhibitor, partial curve] |
| O=C(CN1C(=O)C(c2ccccc2)Oc2cccnc21)NCc1ccccc1F (stereo not drawn) | inconclusive: 100 µM [inhibitor, single point] |
| O=C1CC2C(CCC23OCCO3)c2ccc3ccccc3c21 (stereo not drawn) | inactive |
| Cc1nc(SC(C)C(=O)c2c(N)n(C)c(=O)n(C)c2=O)c2c(C)c(C)sc2n1 (stereo not drawn) | inconclusive: 63.1 µM [inhibitor, partial curve, poor fit] |
| CCN(CC)c1ccc(/C=C/c2cc(Cl)nc3ccccc23)cc1 | inactive |
| CC(=O)c1ccc(NC(=S)NC(=O)/C=C/c2ccco2)cc1 | inactive |
| COc1ccc(-n2nc(C(=O)N3CCC(N4CCCCC4)CC3)c3c4ccccc4n(C)c3c2=O)cc1 | active: 89.1 µM |
| O=C(c1ccc(Cl)cc1)[C@@H]1[C@@H]2C(=O)N(c3ccccc3)C(=O)[C@@H]2C2c3ccccc3C=NN21 (stereo partly drawn) | inconclusive: 10 µM [inhibitor, partial curve, poor fit] |
| Cc1cc(/C=C/c2ccnc3ccccc23)ccc1N(C)C | inconclusive: 50.1 µM [inhibitor, partial curve, poor fit] |
| COc1ccc(OC)c(NC(=O)c2nnn(Cc3ccccc3C)c2N)c1 | inconclusive: 44.7 µM [inhibitor, partial curve, poor fit] |
| COc1cc(/C=C2\SC(=O)N(CC(=O)Nc3cccc(C)c3)C2=O)cc([N+](=O)[O-])c1O | inconclusive: 56.2 µM [inhibitor, partial curve, poor fit] |
| O=S(=O)(NCc1ccccc1)c1cccs1 | inconclusive: 89.1 µM [inhibitor, single point] |
| Cc1[nH]ncc1N=Cc1ccc([N+](=O)[O-])cc1 | inactive |
| CC1=NN(c2ccccc2)C(=O)/C1=C/c1cccc(C)c1 | inconclusive: 89.1 µM [inhibitor, partial curve, poor fit] |
| O=C(N/N=C/c1ccc([N+](=O)[O-])o1)c1cc2c(ccc3ccccc32)o1 | inconclusive: 50.1 µM [inhibitor, partial curve] |
| Cc1ccc(C(=O)c2oc3nc(C)cc(C)c3c2N)cc1 | inconclusive: 50.1 µM [inhibitor, partial curve, poor fit] |
| O=[N+]([O-])c1ccc(/C=N/Nc2nc(N3CCCCCC3)nc(N3CCCCCC3)n2)o1 | active: 35.5 µM |
| CCOc1ccccc1NC(=O)CN(C)S(=O)(=O)c1ccc2[nH]c(=O)oc2c1 | inactive |
| Cc1csc(NC(=O)CSc2sc3c(O)cc(=O)[nH]c3c2C#N)n1 | active: 50.1 µM |
| CCCCC(=O)c1ccc(O)cc1 | inactive |

| Structure (SMILES) | Potency |
| --- | --- |
| O=C(O)CCN1C(=O)/C(=C/c2cn(-c3ccccc3)nc2-c2cccs2)SC1=S | inconclusive: 50.1 µM [inhibitor, partial curve, poor fit] |
| CCC1=C(c2ccc(C)cc2)S(=O)(=O)N=C1N1CCC(C(=O)Nc2ccccc2C(=O)OC)CC1 | inactive |
| COc1ccc(Cl)cc1NC(=O)CC(C)=O | inactive |
| CN(CCNC(=O)c1cc2c(-c3ccccc3F)nn(C)c2s1)C1CCCCC1 | inconclusive: 50.1 µM [inhibitor, partial curve] |
| CCN(CC)CCCNC(=O)c1cc2c(Cl)nc3ccccc3c2s1 | active: 44.7 µM |
| Cc1cc(O)c(C=O)c2c1C(=O)Oc1c(CO)c(O)c3c(c1O2)C(O)OC3=O (stereo not drawn) | active: 3.55 µM |
| CN(Cc1ccccc1)C(=O)CSc1c2c(nc3ccc(Cl)cc13)CCCC2 | inconclusive: 28.2 µM [inhibitor, partial curve, poor fit] |
| O=[N+]([O-])c1ccc(O)c(-c2nc(-c3ccccc3)c(-c3cccs3)[nH]2)c1 | inconclusive: 89.1 µM [inhibitor, partial curve, poor fit] |
| O=c1oc(-c2ccc(O)c(O)c2)cc2cccc(O)c12 | inconclusive: 44.7 µM [inhibitor, partial curve] |
| CCCCCn1c(CN2CCN(c3cccc(Cl)c3)CC2)nc2c1c(=O)n(C)c(=O)n2C | inconclusive: 89.1 µM [inhibitor, partial curve, poor fit] |
| Cc1cc(C)n(-c2nc(NCCN(C)C)c3c4c(sc3n2)CCCC4)n1 | inconclusive: 79.4 µM [inhibitor, partial curve, poor fit] |
| COC(=O)c1cc2c(-c3ccccc3)cc3ccccn3c-2c1C(=O)OC | inconclusive: 22.4 µM [inhibitor, partial curve, poor fit] |
| FC(F)(F)c1cc(-c2ccco2)nc(N2CCN(Cc3ccccc3)CC2)n1 | inconclusive: 89.1 µM [inhibitor, partial curve, poor fit] |
| Cc1ccccc1NC(=O)CSc1ccsc1[N+](=O)[O-] | inconclusive: 50.1 µM [inhibitor, partial curve] |
| Cc1ccccc1Cn1cnc2nc3c(cc2c1=O)CC(C)CC3 (stereo not drawn) | inactive |
| COc1ccc(NC(=O)NCCn2nnc3cc(S(=O)(=O)N(C)C)ccc32)cc1 | inactive |
| Clc1cccc(Cc2ccc(Cl)nn2)c1 | inactive |
| O=C(Oc1c(CN2CCOCC2)cc(Cl)c2cccnc12)c1ccc(F)cc1 | inconclusive: 89.1 µM [inhibitor, partial curve, poor fit] |
| COc1cccc(NC(=O)Nc2ccc3nc(N4CCN(C)CC4)cc(C)c3c2)c1 | inconclusive: 50.1 µM [inhibitor, partial curve, poor fit] |
| CCS(=O)(=O)C1=NSC2=NC(=O)/C(=C\c3ccc(OC(=O)c4ccco4)cc3)C(=N)N21 | inactive |
| COc1cccc(C(=O)OCC(=O)Nc2sc3c(c2C(N)=O)CCC3)c1O | inconclusive: 50.1 µM [inhibitor, partial curve] |
| COc1ccccc1CNS(=O)(=O)c1ccc(-c2cc(C(F)(F)F)on2)s1 | inconclusive: 31.6 µM [inhibitor, partial curve, poor fit] |

— PubChem BioAssay AID588795 (National Center for Advancing Translational Sciences (NCATS), 2011)
